Data published in article PMC4336329 (PLoS ONE, 2015).
The whole screen tested about 310,000 compounds, of which about 2,200 (0.71%) showed an effect of 50% or more. The effect is printed as a negative number. Some of the results follow.

molecular target: human ether-à-go-go-related gene (hERG) potassium channel (human, UniProt Q12809); experiment: primary screen, population patch clamp on CHO cells stably expressing hERG
Sequence (Q12809 whole entry, looked up): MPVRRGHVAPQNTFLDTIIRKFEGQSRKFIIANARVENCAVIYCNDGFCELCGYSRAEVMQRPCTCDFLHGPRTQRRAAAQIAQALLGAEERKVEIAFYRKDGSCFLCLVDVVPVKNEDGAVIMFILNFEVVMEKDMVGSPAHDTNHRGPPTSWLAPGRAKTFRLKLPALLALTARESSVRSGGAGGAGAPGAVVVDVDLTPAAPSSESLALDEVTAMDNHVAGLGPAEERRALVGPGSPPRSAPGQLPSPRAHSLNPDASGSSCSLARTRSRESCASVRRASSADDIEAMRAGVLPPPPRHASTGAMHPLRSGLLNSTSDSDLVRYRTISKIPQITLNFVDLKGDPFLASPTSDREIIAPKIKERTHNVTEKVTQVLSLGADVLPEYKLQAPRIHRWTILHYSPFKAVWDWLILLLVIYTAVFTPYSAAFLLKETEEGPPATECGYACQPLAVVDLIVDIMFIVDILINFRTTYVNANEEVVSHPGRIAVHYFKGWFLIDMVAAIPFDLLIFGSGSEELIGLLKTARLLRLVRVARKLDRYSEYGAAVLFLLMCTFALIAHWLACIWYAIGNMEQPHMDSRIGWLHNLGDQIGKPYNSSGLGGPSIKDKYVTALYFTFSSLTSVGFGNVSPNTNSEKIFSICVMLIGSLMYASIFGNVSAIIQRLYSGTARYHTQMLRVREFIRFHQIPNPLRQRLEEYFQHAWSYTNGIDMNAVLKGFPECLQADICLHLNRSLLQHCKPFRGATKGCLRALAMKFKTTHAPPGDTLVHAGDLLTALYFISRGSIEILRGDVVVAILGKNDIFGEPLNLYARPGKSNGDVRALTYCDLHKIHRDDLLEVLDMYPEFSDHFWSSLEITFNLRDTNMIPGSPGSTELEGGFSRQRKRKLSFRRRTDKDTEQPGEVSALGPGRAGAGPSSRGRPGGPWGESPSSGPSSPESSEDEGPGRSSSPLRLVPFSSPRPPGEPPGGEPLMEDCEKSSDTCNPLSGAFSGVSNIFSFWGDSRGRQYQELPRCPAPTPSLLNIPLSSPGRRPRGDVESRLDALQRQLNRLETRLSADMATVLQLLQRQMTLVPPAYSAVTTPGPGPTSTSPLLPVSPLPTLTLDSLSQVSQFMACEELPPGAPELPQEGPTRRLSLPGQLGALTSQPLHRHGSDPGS

Structure (SMILES)	hERG current change (%, negative = inhibition) at 1uM [%]
Cc1ccc(CNC(=O)C2CCC(=O)N(CCc3ccccc3)C2)s1 (stereo not shown)	18.1
CC1CN(C(=O)CCC(=O)NCc2cccnc2)c2ccccc2O1 (stereo not shown)	5.05
COC(=O)C1=C(C)N(C)C(=S)N(C)C1c1ccc(OC)cc1 (stereo not shown)	-2.15
COc1ccc(N2CCN(CCCNC(=O)CC3Oc4ccc(C)cc4NC3=O)CC2)cc1 (stereo not shown)	-29.9
Cc1ccc(/C=C/c2onc(C)c2S(=O)(=O)N2CCC(C(=O)N3CCCCC3)CC2)cc1	7.15
COc1ccc(NS(=O)(=O)c2ccc(NC(=S)NC(=O)CC(C)C)cc2)cc1	4.45
CCCC1C(=O)N(Cc2ccccc2)C(=O)CC1C (stereo not shown)	12.4
Cc1cnc(SCCc2ccncc2)nc1C.Cl	6.33
CC(C)CCNC(=O)C1CCN(Cc2cccc(OCc3ccccc3)c2)CC1.O=C(O)C(=O)O	-10.6
CCc1ccc(OC(=O)/C=C/c2ccco2)cc1	5.5
CCCn1c(=O)c2c(nc(Br)n2CCC)n(C)c1=O	9.07
CCOC(=O)C(NC(=O)NCc1ccccc1OC)(OCC)C(F)(F)F (stereo not shown)	3.63
COc1cc(C2=NOC(C(=O)Nc3ccc4c(c3)OCO4)C2)cc(OC)c1OC (stereo not shown)	15.5
COc1ccc2nc(NC(=O)CSc3nc4cccnc4n3C)sc2c1	14.2
CC(=O)c1c(NCCc2ccccc2)nc(=S)n(-c2ccccc2)c1C	12.4
NC(CO)(CO)CO.O=C(c1ccccc1)c1ccc2n1CCC2C(=O)O (stereo not shown)	5.92
CCc1nc2ccccc2nc1N1CCN(S(=O)(=O)c2c(C)cc(Cl)cc2C)CC1	12.6
O=C(Nc1ccc(N2CCN(C(=O)c3cccs3)CC2)c(Cl)c1)c1cccnc1	6.24
S=C(Nc1ccccc1)N1CCOCCOCCN(C(=S)Nc2ccccc2)CCOCCOCC1	8.24
COc1ccccc1N1CCN(C(=O)COc2ccc(C)cc2Br)CC1	11.7
O=C(c1cc(-c2ccncc2)nc2ccccc12)N1CCN(S(=O)(=O)/C=C/c2ccccc2)CC1	-8.43
COc1cc(-c2onc3ccc(Br)cc23)cc(OC)c1OC	10.9

Structure (SMILES)	hERG current change (%, negative = inhibition) at 1uM [%]
COc1nc(Nc2ccc([N+](=O)[O-])cc2)nc(NC(C)C)n1	0.558
Cn1nnnc1SCc1ccc(Cl)cc1	23.4
COc1ccccc1C(=O)NCCNC(=O)c1ccco1	15.7
COc1ccc(NS(=O)(=O)c2cccc(C(=O)N/N=C/c3cn(-c4ccccc4)nc3-c3ccccc3)c2)cc1	7.66
Cc1cccc(C)c1NC(=O)CNC(=O)CNC(=O)Cc1cccc2ccccc12	8.54
CCCS/C(N)=N/N=C/c1ccccc1O	4.25
CCOC(=O)CCNCC1COc2ccccc2O1.Cl (stereo not shown)	4.49
CCN(CCNC(=O)C1CCCN(S(=O)(=O)c2cnc[nH]2)C1)c1ccccc1 (stereo not shown)	19.7
O=C(NCCCNC(=O)c1ccccn1)c1cccc(F)c1	7.69
Cc1ccnc(NS(=O)(=O)c2ccc(NC(=O)C3CC3)cc2)n1	18.5
CS(=O)(=O)N(C(=O)NC(=O)NC12CC3CC(CC(C3)C1)C2)C1CCCCC1	4.78
COc1ccc(N(CC(=O)NC2CCCCC2C)S(=O)(=O)c2c(C)nn(C)c2C)cc1 (stereo not shown)	0.095
CCN=C1SC(CC(=O)Nc2ccc(C)cc2)C(=O)N1CC (stereo not shown)	13.4
Cc1cc2oc(C(=O)Nc3cccnc3)c(C)c2cc1C	-6.17
COC(=O)c1ccc(NC(=O)CNS(=O)(=O)c2cccs2)cc1	5.87
Cc1ccc(C(=O)N/C(=C\c2ccco2)C(=O)NCCCN2CCOCC2)cc1C	9.35
CCOC(=O)N1CCC(N(CCOC)C(=O)Nc2ccc(CC)cc2)CC1	-4.01
O=C(CNS(=O)(=O)c1ccc(F)cc1)N1CCN(c2ccc(F)cc2)CC1	-14.9
COc1ccc(NC(=O)CSc2nc3ccc(Nc4nc(N5CCOCC5)nc(N5CCOCC5)n4)cc3s2)cc1	3.97
COc1ccc(S(=O)(=O)Nc2ccccc2)cc1	7.2
COc1ccc(CC(=O)OCC(=O)NCC2CCCO2)cc1OC (stereo not shown)	8.54
